According to the supplement of paper PMC4967469:
The IC50 comes from the fitted curve, where viability falls to half of the control; where the fit passes the top or lowest dose, that dose stands as a limit. AUC sums up the same curve from the lowest dose to the 256-fold higher top dose; it is 1 without any effect and falls as sensitivity rises. For some of these results: Any top dose called inferred was calculated from the reported fits.

Tests used:
Assay in all cases: Viability of human cancer cell lines after 72 h of drug (GDSC screen)
[1] = compound: C=C(c1ccc(C(=O)O)cc1)c1cc2c(cc1C)C(C)(C)CCC2(C)C [Bexarotene]; settings: top dose 8 µM
Method: (§1)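 Human cancer cell lines in 384-well plates, medium with 10% serum, drug for 72 h over a 256-fold dose range (nine 2-fold or five 4-fold steps up to the top dose). Adherent lines were fixed and stained with the nucleic acid dye Syto60, suspension lines read with resazurin; signal relative to control wells, capped at 0 and 100%. One two-parameter sigmoid per drug and line, fitted in a mixed model over all curves with the slope shared within a line.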

[2] = compound: COc1cc(C(=O)NC2CCN(C)CC2)ccc1Nc1ncc2c(n1)N(C1CCCC1)C(C)CC(=O)N2C [NPK76-II-72-1]; settings: top dose 10.24 µM; top dose inferred
Method: as §1

[3] = compound: COc1cc([C@@H]2c3cc4c(cc3[C@@H](O[C@@H]3O[C@@H]5CO[C@@H](C)O[C@H]5[C@H](O)[C@H]3O)[C@H]3COC(=O)[C@H]23)OCO4)cc(OC)c1O [Etoposide]; settings: top dose 16 µM
Method: as §1

[4] = compound: COc1ccc(C(=O)CC2(O)C(=O)Nc3c(Cl)ccc(Cl)c32)cc1 [YK 4-279]; settings: top dose 10 µM
Method: as §1

[5] = compound: Cc1ccc2nc(NCCN)c3ncc(C)n3c2c1 [BMS-345541]; settings: top dose 16 µM
Method: as §1

[6] = compound: NC(=O)Nc1cc(-c2cccc(F)c2)sc1C(=O)N[C@H]1CCCNC1 [AZD7762]; settings: top dose 2 µM
Method: as §1

[7] = compound: O=C(O)c1ccc(-c2c[nH]c3ncc(-c4ccccc4)cc23)cc1C1CCCC1 [GSK-650394]; settings: top dose 16 µM; top dose inferred
Method: as §1

[8] = compound: Oc1nc(-c2ccc(C(F)(F)F)cc2)nc2c1CSCC2 [XAV 939]; settings: top dose 5 µM; top dose inferred
Method: as §1

Cell Line	AUC [1]	IC50 [1] [µM]	AUC [2]	IC50 [2] [µM]	AUC [3]	IC50 [3] [µM]	AUC [4]	IC50 [4] [µM]	AUC [5]	IC50 [5] [µM]	AUC [6]	IC50 [6] [µM]	AUC [7]	IC50 [7] [µM]	AUC [8]	IC50 [8] [µM]
PA-TU-8902 (pancreas, adherent)	0.945	> 8	0.911	> 10.2	0.706	4.25	0.625	1.47	0.912	> 16	0.876	> 2	0.886	> 16	0.976	> 5
PA-TU-8988T (pancreas, adherent)	0.904	> 8	0.949	> 10.2	0.561	1.47	0.709	2.44	0.916	> 16	0.93	> 2	0.576	1.61	0.971	> 5
PANC-02-03 (pancreas, adherent)	0.982	> 8	0.797	5.97	0.889	> 16	0.746	3.74	0.902	> 16	0.623	0.293	0.975	> 16	0.958	> 5
PANC-03-27 (pancreas, adherent)	0.975	> 8	0.969	> 10.2	0.586	1.69	0.617	1.28	0.886	15.7	0.553	0.173	0.934	> 16	0.95	> 5
PC-3 [JPC-3] (lung adenocarcinoma, adherent)	0.914	> 8	0.913	> 10.2	0.854	> 16	0.824	8.67	0.824	13.9	0.827	1.79	0.965	> 16	0.977	> 5
PC-14 (lung adenocarcinoma, adherent)	0.982	> 8	0.882	8.84	0.818	7.8	0.654	1.58	0.825	8.22	0.727	0.507	0.906	> 16	0.961	> 5
PCI-4B (head and neck, adherent)	0.943	> 8	0.771	3.72	0.519	1.13	0.651	1.6	0.818	8.42	0.671	0.363	0.828	9.17	0.922	> 5
PCI-6A (head and neck, adherent)	0.939	> 8	0.886	> 10.2	0.468	0.821	0.722	2.63	0.777	6.3	0.247	0.0238	0.584	1.69	0.98	> 5
PCI-15A (head and neck, adherent)	0.937	> 8	0.986	> 10.2	0.697	3.6	0.687	2.09	0.772	6.22	0.917	> 2	0.983	> 16	0.986	> 5
PCI-30 (head and neck, adherent)	0.981	> 8	0.98	> 10.2	0.947	> 16	0.75	3.92	0.985	> 16	0.706	0.549	0.985	> 16	0.982	> 5
PE/CA-PJ15 (head and neck, adherent)	0.986	> 8	0.968	> 10.2	0.787	7.6	0.697	2.35	0.934	> 16	0.961	> 2	0.985	> 16	0.942	> 5
PF-382 (T-cell lymphoblastic leukaemia, suspension)	0.975	> 8	0.473	0.547	0.49	0.944	0.99	> 10	0.578	1.58	0.631	0.273	0.83	8.39	0.99	> 5
PL-21 (acute myeloid leukaemia, suspension)	0.847	7.46	0.639	1.66	0.772	7.19	0.808	6.23	0.594	1.89	0.459	0.0949	0.879	> 16	0.966	> 5
PSN1 (pancreas, adherent)	0.823	3.75	0.854	6.18	0.959	> 16	0.565	0.911	0.759	4.8	0.777	0.675	0.57	1.5	0.991	> 5
QIMR-WIL (acute myeloid leukaemia, suspension)	0.909	> 8	0.786	4.28	0.231	0.171	0.66	1.71	0.729	4.38	0.503	0.128	0.756	5.33	0.957	> 5
RC-K8 (B-cell lymphoma, suspension)	0.984	> 8	0.942	> 10.2	0.86	10.7	0.973	> 10	0.913	> 16	0.919	> 2	0.987	> 16	0.967	> 5
REH (B-cell leukaemia, suspension)	0.977	> 8	0.62	1.35	0.251	0.199	0.716	2.49	0.837	10.2	0.692	0.421	0.852	11.6	0.962	> 5
RERF-LC-KJ (lung adenocarcinoma, adherent)	0.96	> 8	0.965	> 10.2	0.871	15.8	0.81	5.47	0.886	> 16	0.758	0.711	0.871	15.9	0.928	> 5
RERF-LC-MS (lung adenocarcinoma, adherent)	0.922	> 8	0.968	> 10.2	0.647	2.58	0.7	2.32	0.984	> 16	0.754	0.69	0.974	> 16	0.944	> 5
RF-48 (stomach, adherent)	0.935	> 8	0.625	1.48	0.446	0.699	0.924	> 10	0.863	> 16	0.771	0.859	0.927	> 16	0.979	> 5
RH-1 (rhabdomyosarcoma, adherent)	0.982	> 8	0.57	0.959	0.203	0.162	0.6	1.12	0.829	7.81	0.616	0.246	0.657	2.52	0.99	> 5
RH-41 (rhabdomyosarcoma, adherent)	0.954	> 8	0.938	> 10.2	0.857	9.74	0.569	0.935	0.968	> 16	0.678	0.357	0.958	> 16	0.991	> 5
RKN (ovary, adherent)	0.952	> 8	0.82	6.31	0.861	14.8	0.643	1.59	0.894	> 16	0.607	0.25	0.92	> 16	0.97	> 5
RKO (large intestine, adherent)	0.871	6.6	0.889	10.2	0.394	0.525	0.446	0.451	0.802	7.22	0.744	0.588	0.537	1.25	0.987	> 5
RMG-I (ovary, adherent)	0.973	> 8	0.917	> 10.2	0.908	> 16	0.722	2.99	0.903	> 16	0.821	1.42	0.911	> 16	0.942	> 5
RO82-W-1 (thyroid, adherent)	0.979	> 8	0.976	> 10.2	0.925	> 16	0.705	2.81	0.983	> 16	0.836	1.88	0.91	> 16	0.961	> 5
ROS-50 (B-cell leukaemia, suspension)	0.978	> 8	0.839	10	0.933	> 16	0.983	> 10	0.85	> 16	0.951	> 2	0.972	> 16	0.977	> 5
RPMI-2650 (head and neck, adherent)	0.945	> 8	0.932	> 10.2	0.433	0.646	0.892	> 10	0.896	> 16	0.882	> 2	0.809	9.23	0.976	> 5
